According to the supplement of paper PMC11417369:
± gives the standard deviation of the averaged measurements. Some of the results follow.

tested on: PfAP2-EXP AP2 domain (GST-tagged); assay: gcPBM binding intensity (ln(normalized median fluorescence intensity)); higher = stronger DNA binding
Procedure, shortened: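 Each value is the highest Masliner-normalised natural-log median intensity across replicate spots of either orientation of a probe. The probes were primer-extended double-stranded 36-bp intergenic genomic sequences on an Agilent 4 × 180k array, alongside negative controls, exposed for 1 h to GST-tagged P. falciparum DNA-binding domains expressed in E. coli. Bound protein was picked up with Alexa488 anti-GST antibody and scanned at 488 nm.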

Sequence | gcPBM binding intensity (ln)
TATGACCTTAGTAATTGTACACAAACATATTAATAT [XGTACX_site3340] | 8.59 ± 0.45
GAGTATATGATATATATATATATATAAAAAAAAAAA [GTGCAC_negctrl_site99] | 8.62 ± 0.47
TATATGTAAATGGACACACACATATATATATATATA [CACACA_site3659] | 10.1 ± 0.36
CGTATATCACCAACTAGTACATATAAATAAATAAAT [XGTACX_site8837] | 8.79 ± 0.39
TGGTATATTATTTTTTGTACACATAAATGAAACATT [XGTACX_site5345] | 8.62 ± 0.27
ATATAGATTCGACACACACACAAAAAAAAAAAAAAA [CACACA_site7677] | 8.28 ± 0.59
GTACCTATTTCATACACACACACACGCAAACAAACA [CACACA_site6590] | 9.01 ± 0.34
ATATATATAATAAACACACACATATACATAGATGTA [CACACA_site5841] | 8.54 ± 0.29
ATATATATATATATATGTACATATTATTATTTTGAT [XGTACX_site4752] | 10.1 ± 0.38
GTATATGTACTATACGCACACACACCCACATATATA [CACACA_site9062] | 8.86 ± 0.39
ATATATATTATATGCACACTAATAAGACTATTTAAA [CACACA_site3554] | 8.51 ± 0.099
TTATAACTTTTGAGCACACACAAGCATATAAATATA [CACACA_site6933] | 8.44 ± 0.39
TTGTACATCTTTTGCACACGTAATGTTATTATAATA [CACACA_site1258] | 8.955 ± 0.064
AAATACTGTAAAAAAGCATGCCACTAATAATAATTA [TGCATGCA_site759] | 8.93 ± 0.71
TCATTTTTTTGTTTGGTGCGACTTGAAAATTTGATT | 8.78 ± 0.28
TGTGTGTGTATATGTGTGCACATATAAAATAGAAGA [GTGCAC_site9714] | 9.12 ± 0.29
ATATGTGTTATTTATACATGCAGAAGAATATCTATT [TGCATGCA_site828] | 9.06 ± 0.35
ACATATATATAATATATATATCATCATATTTTCTTA [CACACA_negctrl_site853] | 8.27 ± 0.39
ACCTTTGTAGTTGGTCCACACACATATATGGAAGAA [CACACA_site8351] | 8.9 ± 0.32
CATACATTTAAAAAGTGTACGTATATGAAAAAAGGA [XGTACX_site6512] | 8.88 ± 0.34
CTCAATATTATTACTACACACAAATTAAAATTTTCC [CACACA_site4203] | 8.52 ± 0.35
AGAGAATAAATATAAAGTACATATATAAATATATAT [XGTACX_site5055] | 8.29 ± 0.26
GTATATAAAAATTCATGTACATATTATTATTTTTAA [XGTACX_site658] | 8.52 ± 0.3

Sequence | gcPBM binding intensity (ln)
ACATATACAAAACACACACACAACGTTTTAATAAAT [CACACA_site1979] | 8.72 ± 0.69
ATGTTATAAATCTTAATATATATATGCAAAAGAGAA [XGTACX_negctrl_site521] | 8.81 ± 0.42
GATCCATTATTGATCCGTACTTATTCATGTTATATA [XGTACX_site5946] | 8.84 ± 0.36
TATATATGTATATATACACACAACGGTTATAAATAT [CACACA_site1128] | 8.7 ± 0.44
TATATATATATATGTATGCACTTTAATTTTATAAGG | 10.1 ± 0.4
TGTTATAAGATTTATGTACACACATATACACCCCTC [CACACA_site8141] | 9.14 ± 0.34
AATATAAATAAAAACACACACACACCGATATATATA [CACACA_site5283] | 8.86 ± 0.4
AAGATTAGGTTAATTAGTACTTATTATATTGTAATG [XGTACX_site3653] | 8.28 ± 0.51
AACATTGATAAATATAAACACACGAAAACAGACATA [CACACA_site490] | 9.02 ± 0.57
GAAACAATTTGATATTGTACATAAATAAATAAAAAC [XGTACX_site8869] | 8.9 ± 0.33
CATATTATTATTTTGGTGCATACTTATATATATTTT | 8.75 ± 0.31
GTACCTATTTCATACACACACACACCCAAACAAACA [CACACA_site976] | 8.99 ± 0.4
CATTTGCACCCGCACACACACATAAAAAGAAAAATA [CACACA_site4350] | 9.37 ± 0.52
TAATTTTTTTTAATAACACACATATAAATATAAATA [CACACA_site6521] | 8.17 ± 0.45
CTTGTACCTAGAAATACACACAATTCTATAACTTAT [CACACA_site7355] | 8.47 ± 0.2
AATGTAGAAATGGGTGCACACACATATATAATATAT [CACACA_site8799] | 9.12 ± 0.15
AATGTGTAGACACGCACACACAAAAAAATATATATA [CACACA_site5595] | 8.63 ± 0.41
GTTTTATTTTCAATGTGTACTTATTATTTGATATAC [XGTACX_site6402] | 8.87 ± 0.23
TATAAAAATATTTCTACACACATTAAAATATATATA [CACACA_site4770] | 8.3 ± 0.37
CATTTGCCCAGGCACACACACATAAAAAGAAAAATA [CACACA_site356] | 8.4 ± 0.55
AATGAAAGGATGCTGTGTACATATATATATATATAT [XGTACX_site7901] | 10.2 ± 0.49
TGGTCTTTTAAACAAAAATATAAATTTTTAAATATG [CACACA_negctrl_site392] | 8.13 ± 0.42
AATTTAATATAATGCACACATAAAAAAAAAAAATTC [CACACA_site1504] | 8.85 ± 0.12

Sequence | gcPBM binding intensity (ln)
AGCTTGTGGATGCAGGTGCTACATTTGTTCTATAAT [GTGCAC_site9645] | 8.58 ± 0.33
AAGAAAATTGTCTGAAGTACAAAACATTAATAATAT [XGTACX_site4864] | 8.74 ± 0.34
AAGATAAATTATTATAAATCAATTGTGCCAACAATA [CACACA_negctrl_site144] | 8.21 ± 0.23
TTTTTTTTGTGTTCAAGTACAAAATTTTAAAGGTCA [XGTACX_site4011] | 8.26 ± 0.35
GGTTATTTCACAGAATGTACTTATTATATATAAAAT [XGTACX_site8886] | 8.49 ± 0.37
TATATATATATATAAGCACACAAACAAAAAAAATTA [CACACA_site9293] | 10.1 ± 0.17
TGTAGAACTCAATATTGTACATTATATAAAATGGGA [XGTACX_site3857] | 8.73 ± 0.2
TTTAAATATATATATTGTACAAAAAAAAATAATAAA [XGTACX_site4759] | 8.71 ± 0.42
ATAAAATTTATGACTTGTACATGTAAATAAAATATA [XGTACX_site762] | 8.86 ± 0.35
TTTTTTTGCATTTCATGTACATATATTGAGCTTAAA [XGTACX_site8485] | 9.14 ± 0.52
ATATATATATATTGTACACACATTTATGCATATATA [CACACA_site5738] | 9.97 ± 0.3
GCCTTTTAGTATTTCACACACGTAAATGAGTATATC [CACACA_site4748] | 8.79 ± 0.4
CTTCTTGTAAAATTTGCATGTAATTAAAAGAGAATG [TGCATGCA_site484] | 8.77 ± 0.28
TTCCCTATCTTTTCAGTGCATTTTGTTTCCTACCTT [GTGCAC_site9813] | 9.25 ± 0.4
TTCAAATGATTTATGTGTACATAAAATTATTTTTTA [XGTACX_site107] | 8.09 ± 0.21
GATATAGGGCGTATGTTAATCGTGAAAGAGTGTCTT [GTGCAC_negctrl_site102] | 8.86 ± 0.52
ATTGGTTCCCCTCTCTTTTCAATATATTTTTTTTTT [XGTACX_negctrl_site259] | 8.59 ± 0.4
ATAAAGAATATAAATACACACTTAAATATAGATTAT [CACACA_site7804] | 8.42 ± 0.65
TAATGAAGCTTATGCACACGTTCATTATTTATATTA [CACACA_site3219] | 8.79 ± 0.092
AAAAAATTAAAAATCACACATAAATATATATAAAAA [CACACA_site4192] | 8.45 ± 0.4
ATATTACAGTACAATACATGCATATGGAAAAAAAAA [TGCATGCA_site72] | 8.82 ± 0.52
TACTTATATTGAAATGGTACAGATAAAAAAAAAAAA [XGTACX_site1407] | 8.64 ± 0.47
ACATTCTATCTAAGTACACACATTAATTTTTTTTTT [CACACA_site4106] | 8.66 ± 0.32

Sequence | gcPBM binding intensity (ln)
TTTTGTAATGTGAATATTTGTATATTATTTGTATAT [CACACA_negctrl_site1677] | 8.19 ± 0.22
TAATATTTTTTGTGTACACATATATATATATATATA [CACACA_site5504] | 10.2 ± 0.53
AATTTACATATATATTGTACATTTATGTATATATAT [XGTACX_site4186] | 8.38
AAAAAAAAAAAAAACACACAAACATCAAATTATTAT [CACACA_site1838] | 8.48 ± 0.43
GTGCCCTTTTTAATAACATGCAAATAACATATTTAT [TGCATGCA_site709] | 8.88 ± 0.29
AATTAGATGGATAAATGTACATATGTGAATATATTT [XGTACX_site85] | 8.85 ± 0.52
ATATAACACAAGGGCACACATATACCTTTCCTTTTT [CACACA_site412] | 8.77 ± 0.36
TTTATATTATACGCACTAATATATATATATATATAT [TGCATGCA_negctrl_site47] | 10.1 ± 0.29
GTAATATATATTAAGTAATAGTTTATCTTAGGAAAA [TGCATGCA_negctrl_site302] | 8.15 ± 0.47
ATCTTATATCGTAGAGATTTTTTTTTTTTTTCATTT [XGTACX_negctrl_site140] | 8.12 ± 0.44
AATTTCTTCTTAGGGTGTACAATTTGACATAAGGAA [XGTACX_site1773] | 8.68 ± 0.42
GAGAGTACCTATATTGCATGCAGACTTTTTAAATAT [TGCATGCA_site564] | 10.1 ± 0.16
TAAAATAAAAATTTATGTACACATAAAAAAACAAAA [XGTACX_site1112] | 8.66 ± 0.25
GTTAAAATAATATGGTGTACAAATATATAAGTTCAT [XGTACX_site3262] | 8.79 ± 0.3
TTTTTTTTTTTTTGTAGTACATTATGTATATTTTTA [XGTACX_site7810] | 8.44 ± 0.59
TTAATAAGAGAGCAATAGGTGGACTGTTTCTTTTAT [CACACA_negctrl_site1239] | 8.36 ± 0.33
ATATATATATATAAAAGTACTTATTTTTATTTACAT [XGTACX_site4299] | 9.87 ± 0.42
TTTTTATAGGTAAAAACACACGCTAAAAATAATTAA [CACACA_site3731] | 8.67 ± 0.48
ATTTATATTACCCTTGCATGTAGGTGCAATTTTTTT [TGCATGCA_site757] | 9.26 ± 0.099
CATTTTGTTTTAAAGTGTACATTATGTAATATAAAA [XGTACX_site647] | 8.41 ± 0.35
